Experimental findings from patent publication US12583836B2 (Anaxis Pharma Pty Ltd, priority 2020, dated 2026) are described below.

Each structure is given as a SMILES string.

In one assay the target is T1, RIP1 (Homo sapiens, UniProt Q13546).
T1 construct: purchased DiscoverX (KINOMEscan service); host or cells: E. coli BL21-derived (T7 phage) or HEK293
T1 sequence (Q13546 1-671): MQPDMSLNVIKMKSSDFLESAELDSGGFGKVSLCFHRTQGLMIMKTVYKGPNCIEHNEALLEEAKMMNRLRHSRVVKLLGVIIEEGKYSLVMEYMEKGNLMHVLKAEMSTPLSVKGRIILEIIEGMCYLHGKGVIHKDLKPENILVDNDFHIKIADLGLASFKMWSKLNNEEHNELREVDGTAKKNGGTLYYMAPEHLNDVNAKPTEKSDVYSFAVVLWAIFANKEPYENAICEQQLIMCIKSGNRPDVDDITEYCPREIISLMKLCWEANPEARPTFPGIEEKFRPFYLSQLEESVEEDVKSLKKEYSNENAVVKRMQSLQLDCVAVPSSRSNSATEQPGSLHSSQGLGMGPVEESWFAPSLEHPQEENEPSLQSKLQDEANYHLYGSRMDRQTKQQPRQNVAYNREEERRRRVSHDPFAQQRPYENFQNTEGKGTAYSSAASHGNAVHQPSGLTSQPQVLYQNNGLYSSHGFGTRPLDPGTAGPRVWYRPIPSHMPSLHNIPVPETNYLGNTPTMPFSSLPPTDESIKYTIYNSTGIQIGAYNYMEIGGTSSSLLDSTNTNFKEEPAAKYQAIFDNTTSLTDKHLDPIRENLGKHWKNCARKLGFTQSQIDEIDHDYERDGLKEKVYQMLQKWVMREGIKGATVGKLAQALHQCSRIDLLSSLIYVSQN
Briefly: KINOMEscan binding assay, RIP1. The conditions noted are these: equilibrium dissociation constant, class symbols.

The target of the next assay is T2, MLKL (full length) (Homo sapiens, UniProt Q8NB16).
T2 construct: purchased DiscoverX (KINOMEscan service); host or cells: E. coli BL21-derived (T7 phage) or HEK293
T2 sequence (Q8NB16 1-471): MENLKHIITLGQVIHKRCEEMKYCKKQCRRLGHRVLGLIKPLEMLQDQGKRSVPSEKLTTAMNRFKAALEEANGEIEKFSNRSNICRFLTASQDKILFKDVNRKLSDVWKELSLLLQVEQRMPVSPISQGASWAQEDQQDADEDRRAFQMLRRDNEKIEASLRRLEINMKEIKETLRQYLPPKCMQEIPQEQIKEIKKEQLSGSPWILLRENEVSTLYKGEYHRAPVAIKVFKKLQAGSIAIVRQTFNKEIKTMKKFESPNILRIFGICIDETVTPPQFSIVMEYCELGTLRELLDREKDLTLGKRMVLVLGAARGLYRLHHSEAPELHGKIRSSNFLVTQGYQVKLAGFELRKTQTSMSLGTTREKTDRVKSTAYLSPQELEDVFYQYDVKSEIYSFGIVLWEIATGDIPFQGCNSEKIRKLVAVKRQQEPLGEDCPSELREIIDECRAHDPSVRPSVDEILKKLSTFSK
The assay is described as follows: KINOMEscan binding assay, MLKL. The settings on record: equilibrium dissociation constant, class symbols. The source says:
The Hill Slope was set to −1.

For the compound `NC(=O)c1c(-c2ccc(NS(=O)(=O)CC(F)(F)F)cc2)n[nH]c1Nc1ccc(C(F)(F)F)cn1` [Compound 153, 3-(4-((2,2,2-trifluoroethyl)sulfonamido)phenyl)-5-((5-(trifluoromethyl)pyridine-2-yl)amino)-1H-pyrazole-4-carboxamide], the figures for the Kd on RIP1 and at MLKL (full length) were more than 30 µM and less than 0.01 µM, respectively.
